Test results published in PubChem BioAssay AID743255 (National Center for Advancing Translational Sciences (NCATS), 2014).
Where “and” joins values, the source holds several entries; their conditions need not be identical. Equal values may be shown once. Screen size: about 390,000 compounds; about 910 (0.23%) were called active. Roughly 5% stayed inconclusive and do not appear here. Calls come from the whole dose curve; as a rule, active = well fitted inhibition curve with a large enough effect; inconclusive = small, poorly fitted or top-dose-only effect; inactive = no such curve, though single readings can be large or run the other way. This is a selection; strong and weak results do not stand in their true shares. The source holds several records for some structures; these can differ, active in one and inactive in another.

Target: Ubiquitin carboxyl-terminal hydrolase 1 (Homo sapiens) (UniProt O94782)
Chain of UniProt O94782 (O94782 whole entry, looked up): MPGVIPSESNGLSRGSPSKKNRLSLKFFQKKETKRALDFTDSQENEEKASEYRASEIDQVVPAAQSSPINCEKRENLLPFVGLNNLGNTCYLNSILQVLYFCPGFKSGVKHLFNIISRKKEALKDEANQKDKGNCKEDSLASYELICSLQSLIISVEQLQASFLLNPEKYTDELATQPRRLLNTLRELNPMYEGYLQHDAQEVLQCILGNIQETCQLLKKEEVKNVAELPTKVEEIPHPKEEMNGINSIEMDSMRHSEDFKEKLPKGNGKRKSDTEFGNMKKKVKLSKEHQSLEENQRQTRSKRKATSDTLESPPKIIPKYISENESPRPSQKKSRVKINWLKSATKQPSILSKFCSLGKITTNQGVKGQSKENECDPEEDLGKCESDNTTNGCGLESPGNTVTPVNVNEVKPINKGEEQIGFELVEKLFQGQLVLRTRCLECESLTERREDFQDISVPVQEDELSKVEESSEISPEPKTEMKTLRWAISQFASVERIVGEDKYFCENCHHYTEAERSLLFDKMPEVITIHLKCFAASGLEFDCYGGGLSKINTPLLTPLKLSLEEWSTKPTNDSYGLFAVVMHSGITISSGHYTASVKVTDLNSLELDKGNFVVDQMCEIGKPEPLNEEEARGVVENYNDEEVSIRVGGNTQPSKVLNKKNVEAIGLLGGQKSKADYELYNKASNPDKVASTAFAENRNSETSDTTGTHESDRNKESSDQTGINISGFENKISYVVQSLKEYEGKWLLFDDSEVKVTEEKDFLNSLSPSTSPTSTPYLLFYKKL
Assay: Inhibitors of USP1/UAF1: Primary Screen; note: nearly all actives have a fitted effect of over 60% in size
Conditions: recombinant USP1/UAF1, Ub-Rhodamine cleavage fluorescence; activity change, negative = inhibition: at 57.1 µM (top of the series)
Method in brief: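 Step one: compound is pinned into 1nM USP1/UAF1 in HEPES pH 7.8 buffer with TCEP. Step two: 15 min room-temperature incubation. Step three: Ub-Rho (150nM final) starts cleavage, tracked by fluorescence over six one-minute reads.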
% is set by controls: 0 for no effect and ±100 for the full control effect; potency is the fitted concentration of half-maximal effect.

Activity change, negative = inhibition, inactive:
CCCN1C(=O)C(Cc2nc3ccccc3c(=O)n2-c2ccccc2)c2cc(C)ccc21 (centres undefined) -2.36%, CCOC(=O)/C=c1\s/c(=C\c2c(OC)ccc3ccccc23)c(=O)n1CC(=O)NCC1CCCO1 (centres undefined) -8.94%, C[C@H]1CN([C@@H](C)CO)C(=O)CCCn2nncc2CO[C@@H]1CN(C)Cc1cccc2c1OCCCO2 -23.2%, COc1ccc(C)cc1NS(=O)(=O)c1ccc2c(c1)n(C)c(=O)n2C -14.6%, COc1ccc(OC)c(S(=O)(=O)Nc2ccc3c(c2)n(C)c(=O)n3C)c1 -20.3%, Cc1ccc(NC(=O)Cn2cc(C(=O)C3CC3)c3ccccc32)c(C)c1 5.12%, CCOc1cc(/C=C2/NC(=O)NC2=O)cc([N+](=O)[O-])c1O -1.68%, CCO[C@H]1c2c(ccc3ccc(=O)oc23)OC(C)(C)[C@H]1O -17.6%, COc1ccc(-c2cc(C(=O)Nc3cccnc3Cl)no2)cc1OC -5.93%, CCN(CCCNC(=O)Cn1ncc2c([nH]c3ccc(C)cc32)c1=O)c1cccc(C)c1 -7.65%, COC(C[C@H]1O[C@H]1C(=O)[C@H](C)OCc1ccccc1)OC -18.5%, Nc1c(C(=O)N/N=C/c2ccccc2Cl)oc2nc(-c3ccccc3)cc(-c3ccco3)c12 73.5%, Cc1ccc(S(=O)(=O)N2C[C@@H]3[C@H]4CC[C@H](C4)[C@@H]3[C@@H](C)[C@@H]2c2ccn(Cc3ccccc3)c2)cc1 -9.24%, CCOC(=O)c1cc2c(=O)n3ccccc3nc2n(Cc2ccco2)c1=NC(=O)c1cccc(OC)c1 31.8%, COc1cccc(NC(=O)N(C)C[C@@H]2OCc3cnnn3CCCC(=O)N([C@@H](C)CO)C[C@H]2C)c1 -21%, CCOC(=O)C1CCN(S(=O)(=O)c2ccc3c(c2)N(C)C(=O)CC(=O)N3C)CC1 -20.9%, CC(C)(C)OC(=O)C[C@@H]1C/C=C\C[C@@H](CC(=O)N(CCO)Cc2ccccc2)C(=O)N[C@H](C(C)(C)C)COC1=O -25.1%, C[C@H](NC(=O)c1[nH]cnc1C(=O)Nc1nccs1)c1ccccc1 -16.1%, COc1cc2c(=O)n(CCC(=O)NCC3CCCO3)c(=O)n(CC(=O)Nc3ccc(C)c(C)c3)c2cc1OC (centres undefined) 0.414%, CCOc1ccc(NC(=O)C2CCN(c3nnc(-n4c(C)ccc4C)s3)CC2)cc1 32.8%, CCOC(=O)C1CCN(S(=O)(=O)c2csc(C(N)=O)c2)CC1 -6.01%, C#CCNC(=O)C1=C[C@H](c2ccc(Br)cc2)[C@@H](CCCO)[C@H](OCC)O1 -11.1%, O=C(Cn1ncc2c([nH]c3ccccc32)c1=O)NCC1CCN(Cc2ccc(F)cc2)CC1 -31.1%, CC(=O)n1cc([C@@H]2C=C(C(=O)N3CCN(Cc4ccc5c(c4)OCO5)CC3)O[C@H](OCc3ccc(CO)cc3)C2)c2ccccc21 -7.82%, C=C(C)C(=O)Nc1cccc(C2=NOC3(C2)C[C@H](C(N)=O)N(C(=O)C(c2ccccc2)c2ccccc2)C3)c1 (some centres undefined) 37.1%, O=C1CCCC2=C1Sc1ccc(Cl)cc1N2 318%, C=CC[C@H](CC(=O)N[C@H](CO)Cc1ccccc1)C(=O)N[C@H](COC(=O)[C@@H](CC=C)Cc1ccc(F)cc1)Cc1c[nH]c2ccccc12 -18.6%, COc1ccc(S(=O)(=O)N(C)C[C@@H]2OCc3cnnn3CCCC(=O)N([C@H](C)CO)C[C@H]2C)cc1 2.94%, C=CC[C@@H](CC(=O)N[C@H](CO)Cc1ccccc1)C(=O)N[C@H](COC(=O)[C@H](CC=C)CC(=O)OC(C)(C)C)Cc1c[nH]c2ccccc12 -14.4%, CC(C)(C)OC(=O)C[C@@H]1C/C=C\C[C@@H](CC(=O)N[C@@H](CO)Cc2ccccc2)C(=O)N2CCC[C@H]2COC1=O -23.6%, CCc1ccc(NC(=O)Cn2ncn3c(cc4ccccc43)c2=O)cc1 -13.5%, CCN1CCN(Cc2ccc(NC(=O)c3ccc(C)c(NC(=O)c4c[nH]c5cc(C(F)(F)F)ccc5c4=O)c3)cc2C(F)(F)F)CC1 -12.3%, COC(=O)c1cc(S(=O)(=O)NCC2CCN(Cc3cccc(F)c3)CC2)cn1C -7.9%, CCOc1ccccc1CNC(=O)CN1C(=O)CSc2ccc(S(=O)(=O)N3CCOCC3)cc21 -25.3%, C=CC[C@@H](CC(=O)N[C@H](CO)Cc1ccccc1)C(=O)N[C@@H](COC(=O)[C@H](CC=C)CC(=O)OC(C)(C)C)Cc1ccccc1 -17.7%, COC(C[C@H]1O[C@H]1[C@H](O)[C@H](C)OCc1ccccc1)OC -0.472%, CCCc1nc2nc(C)c(NS(=O)(=O)c3ccc(F)cc3)c(=O)n2[nH]1 -17.2%, CNc1ccc2c3c(cccc13)C(=O)N(C)C2=O 321%, C[C@H](CO)N1C[C@H](C)[C@@H](CN(C)C(=O)Nc2ccc(C(F)(F)F)cc2)Oc2c(NC(=O)c3ccncc3)cccc2C1=O -18.2%, O=C(O)C1=C[C@H](c2csc3ccccc23)C[C@H](OCCCCO)O1 -14.1%, CCOC(=O)N(C)C[C@H]1OCc2cn(nn2)CCCC(=O)N([C@H](C)CO)C[C@@H]1C -33.7%, OCC[C@@H]1C[C@H](O)[C@@H](O)[C@@]2(CCCc3ccccc3O2)O1 -25.9%, CNc1c2c(nn1C)CCCC2 -17.5%, Cc1ccc(CNC(=O)c2cccc3c2C(=O)c2ccc(N4CCCCC4)cc2S3(=O)=O)cc1 321%, O=C(C1=C[C@H](C2CCCCC2)C[C@H](OCc2ccc(CO)cc2)O1)N1CCOCC1 -15.1%, C[C@H](CO)N1C[C@H](C)[C@@H](CN(C)S(=O)(=O)c2ccc(-n3cccn3)cc2)OCc2cnnn2CCCC1=O -24.4%, CCCCn1c(SCc2ccc(C(=O)OC)o2)nc2cc(S(N)(=O)=O)ccc21 49.6%, O=C(C[C@H]1C/C=C/CC[C@@H](Cc2ccc(F)cc2)C(=O)O[C@@H](c2ccccc2)CNC1=O)NCCO 14.8%, Cc1ccc2ncc(S(=O)(=O)c3ccccc3)c(N3CCCCC3C)c2c1 (centres undefined) -18.4%, O=c1[nH]c2ccccc2nc1/C=C/c1ccc(F)cc1 45.4%, CCOC(=O)[C@@H]1[C@H]2COc3ccccc3[C@@H]2N2C(=O)N(c3ccc(OC)cc3)C(=O)[C@@]12C -12.1%, Cc1cc(C)c2oc(C(=O)Nc3ccc(S(=O)(=O)N4CCC(C)CC4)cc3)cc(=O)c2c1 -10.7%, CCCN(C)C[C@H]1Oc2ncc(Br)cc2C(=O)N([C@@H](C)CO)C[C@@H]1C -18.5%, C=CC[C@@H](CC(=O)N[C@@H](CO)Cc1ccccc1)C(=O)N[C@H](COC(=O)[C@@H](CC=C)CC(=O)OC(C)(C)C)Cc1ccccc1 -17%, Cc1ccc(S(=O)(=O)NC2(C(F)(F)F)NC(=O)N(CCc3ccccc3)C2=O)cc1 (centres undefined) -9.87%, O=C(Cc1ccccc1)NC1CC(=O)N(c2ccccc2)C1 (centres undefined) 39.2%, C[C@H](CO)N1C[C@H](C)[C@@H](CN(C)Cc2ccc3c(c2)OCCO3)OCc2cnnn2CCCC1=O -28%, O=C1Nc2ccccc2/C1=C/c1cnc(-c2ccccc2)[nH]1 149%, C[C@@H]1CN([C@@H](C)CO)C(=O)CCCn2nncc2CO[C@@H]1CN(C)S(=O)(=O)c1ccc(Oc2ccccc2)nc1 3.26%, C[C@H]1CN([C@@H](C)CO)C(=O)CCCn2nncc2CO[C@@H]1CN(C)Cc1ccc(Oc2ccccc2)cc1 -19%, Cc1c(CCNC(=O)c2ccco2)sc2nc(-c3ccc(F)cc3)nn12 -2.72%, COc1ccccc1/C=C1\NC(=S)N(CC2CCCO2)C1=O (centres undefined) 7.2%, C[C@H]1COC(=O)[C@H](Cc2ccc(F)cc2)C/C=C\C[C@@H](CC(=O)NCCO)C(=O)N1 -27%, COc1ccc(NC(=O)Cn2nc(C(F)(F)F)c3c2CCCC3)cc1OC -20.3%

Activity change, negative = inhibition, active:
COC(=O)CSc1nc2sc3c(c2c(=O)n1-c1ccc(C)cc1)CC(C(C)C)OC3 (centres undefined) -81.6%

Potency, active:
Cc1cc(O)c(C(C)C)cc1N=Cc1ccc(N(C)C)cc1 31.6 µM, CCNc1ccc(Br)cc(C(=O)/C=C/c2ccc(Cl)cc2)c1=O 31.6 µM, CC1OC(CC(=O)O)CC2=C1C(=O)c1c(O)cccc1C2=O (centres undefined) 11.2 µM, CC1=Nc2ccccc2/C1=C/c1sc(=S)n(-c2cccc(C(=O)O)c2)c1O 28.2 µM, C[n+]1ccc(/C=C/c2c[nH]c3ccccc23)cc1 28.2 µM, CC1=Nc2ccccc2/C1=C\c1nc(-c2ccc(F)cc2)oc1O 28.2 µM, Cc1ccc(Cl)cc1NC1=C/C(=N\S(=O)(=O)c2cccs2)c2ccccc2C1=O 2.24 µM and 3.16 µM, O=C1NNC(c2ccccc2)=N/C1=C\c1ccccc1Cl 17.8 µM, O=C1C=C(N2CCOCC2)c2ccccc2C1=O 3.16 µM, CN1/C(=C\C=C2\N=C(c3ccc(F)cc3)OC2=O)C(C)(C)c2ccccc21 28.2 µM, OCC[n+]1ccc(/C=C/c2c[nH]c3ccccc23)cc1 28.2 µM, Cc1ccc2c(c1)c(=O)c1c3n2CCN(C(=O)CCl)C3CC1 (centres undefined) 31.6 µM, CC(=O)Nc1ccc(C2=NNC(=Nc3cccc(S(=O)(=O)N(C)C)c3)SC2)cc1 10 µM, C[N+]1(C)CCC(=C2c3ccccc3CC(=O)c3sccc32)CC1 28.2 µM, N#C/C(=C\N1CCN(Cc2ccc3c(c2)OCO3)CC1)c1nc2ccccc2s1 31.6 µM, O=C1C=CC(=O)c2c(O)c(CO)c(CO)c(O)c21 14.1 µM

Potency, inactive and 28.2 µM (active):
Cc1oc2c(cc(NS(=O)(=O)c3ccc(C(C)C)cc3)c3ccccc32)c1C(=O)O

Potency, inactive and 22.4 µM (active):
CCOC(=O)C1=C(C)NC(C)=C(C(=O)OCC)C1

Potency, inactive:
COc1ccc(CCCc2nnc(SCC(=O)Nc3ccc(OC)cc3)o2)cc1
